{"source": "PubChem BioAssay AID1671194", "about": "(National Center for Advancing Translational Sciences (NCATS), 2021)", "note": "Out of some 140,000 compounds screened, about 240 (0.17%) were called active. This list was built around the results that the source calls inconclusive (neither active nor inactive); the mix of calls is not that of the screen. Calls follow the shape of the dose curve; as a rule, active = well fitted inhibition curve with a large enough effect; inconclusive = small, poorly fitted or top-dose-only effect; inactive = no such curve, though single readings can be large or run the other way. A potency beside an inconclusive call is a rough fit, not a confirmed value. Potency is read from the fitted curve at half-maximal effect; tags tell the direction and shape of the fitted curve."}
{"experiment": "Primary qHTS assay for inhibitors of alpha-synuclein gene (SNCA) expression; also: nearly all actives have a fitted effect of over 45% in size", "details": "HEK-293 SNCA-luciferase knock-in, luminescence, 24 h; series mostly up to 57.2 µM"}
{"compound": "C[C@@H]1CN(C[C@@H]2CN(C(=O)c3ccc(Cl)o3)C[C@@H]2CO)C[C@H](C)O1", "Potency": "inconclusive: 2.82 µM [inhibitor, partial curve, poor fit]"}
{"compound": "COc1ccc(OCC2(C)COc3ccc(C(=O)Nc4ccc(OC)nc4)cc3N2)cc1", "note": "(stereo unspecified)", "Potency": "inconclusive: 2.24 µM [inhibitor, partial curve, poor fit]"}
{"compound": "CCOc1ccccc1N(CC)C(=O)Cn1ncc2c1-c1ccccc1OC2", "Potency": "inconclusive: 0.891 µM [inhibitor, full curve]"}
{"compound": "Cc1ccc(C(=O)N2CC(N(Cc3cccnc3)S(C)(=O)=O)C2)s1", "Potency": "inconclusive: 3.16 µM [inhibitor, single point]"}
{"compound": "Cc1nn2c(c1-c1ccccc1C(C)C)N(CCC(C)C)CCC2", "Potency": "inconclusive: 1.41 µM [inhibitor, full curve, poor fit]"}
{"compound": "C[S+](=O)([O-])N1Cc2ccccc2CC2(CCCN(CC3CCCCC3)C2)C1", "note": "(stereo unspecified)", "Potency": "inactive"}
{"compound": "CN(C)[C@@H]1CN(C(=O)c2ccsc2)CC[C@@H]1CO", "Potency": "inconclusive: 31.6 µM [inhibitor, partial curve, poor fit]"}
{"compound": "O=C(CCC1CCCN(CC2=Cc3cc(Cl)ccc3OC2)C1)Nc1ccccc1F", "note": "(stereo unspecified)", "Potency": "inconclusive: 39.8 µM [inhibitor, single point]"}
{"compound": "OCC1CN(c2ccncn2)CC12CCN(Cc1ccncc1F)CC2", "note": "(stereo unspecified)", "Potency": "inconclusive: 39.8 µM [inhibitor, single point]"}
{"compound": "COCCN1Cc2ccc(Nc3ccc(OC)cc3)nc2C(C)(C(=O)Nc2ccccc2)C1", "note": "(stereo unspecified)", "Potency": "inactive"}
{"compound": "CC1(CNC(=O)c2ccoc2)CCOCC1", "Potency": "inconclusive: 12.6 µM [inhibitor, partial curve, poor fit]"}
{"compound": "CCn1nccc1C(=O)N1CC(Oc2ccc(-c3nc(-c4ccccc4)no3)cc2)C1", "Potency": "inconclusive: 14.1 µM [inhibitor, single point]"}
{"compound": "CC(=O)c1ccc(NC(=O)N[C@H]2CO[C@H]3[C@@H]2OC[C@@H]3Nc2nccc(-c3ccco3)n2)cc1", "Potency": "inactive"}
{"compound": "CN1C[C@@H](NS(=O)(=O)c2ccccc2)C[C@H]1c1nc(-c2ccccn2)no1", "Potency": "inactive"}
{"compound": "Cc1cc(C)cc(-c2ccc(CN3CCCC(NC(=O)Nc4ccc(Cl)cc4)C3)cc2)c1", "note": "(stereo unspecified)", "Potency": "inconclusive: 39.8 µM [inhibitor, single point]"}
{"compound": "O=C(c1ccc(C(F)(F)F)cc1)N1CCC2(CC(c3cccc(C(F)(F)F)c3)=NO2)C1", "note": "(stereo unspecified)", "Potency": "inconclusive: 39.8 µM [inhibitor, single point]"}
{"compound": "CCCCN(CC)CCCNC(=O)c1ccc2c(c1)N(Cc1ccc(C)cc1)C(=O)c1ccccc1S2", "Potency": "inconclusive: 20 µM [inhibitor, partial curve, poor fit]"}
{"compound": "Cc1ccccc1N(C)C1CN(Cc2ccc(F)cc2)C1", "Potency": "inactive"}
{"compound": "Cc1ccc2nc(CO[C@H]3CN(CC4CC4)C[C@H]3F)[nH]c2c1", "Potency": "inactive"}
{"compound": "Cc1nnc(N2CCCC(C(=O)Nc3cc(F)ccc3F)C2)c2nn(-c3ccccc3)c(C)c12", "note": "(stereo unspecified)", "Potency": "inconclusive: 39.8 µM [inhibitor, single point]"}
{"compound": "Cc1ccccc1CN1C(=O)C(O)(c2c[nH]c3ccccc23)c2cc(Cl)ccc21", "note": "(stereo unspecified)", "Potency": "inconclusive: 39.8 µM [inhibitor, single point]"}
{"compound": "O=C(c1cc(-c2ccccc2)n[nH]1)N1CCC2(CC1)N=C(c1ccccc1)NO2", "Potency": "inactive"}
{"compound": "O=C([C@H]1CCC[C@H](O)C1)N1CCN(Cc2ccc(C(F)(F)F)cc2)CC1", "Potency": "inactive"}
{"compound": "CC(C)N(Cc1nccn1C)C(=O)CC(c1ccccc1)c1ccccc1F", "note": "(stereo unspecified)", "Potency": "inconclusive: 10 µM [inhibitor, partial curve, poor fit]"}
{"compound": "CC1CCN(S(=O)(=O)c2ccc3c(c2)N(CC(=O)N(C)Cc2ccccc2)C(=O)CO3)CC1", "Potency": "inconclusive: 39.8 µM [inhibitor, single point]"}
{"compound": "Cn1ncc2c(C(=O)NCc3cccc(C(F)(F)F)c3)cc(-c3cccnc3)nc21", "Potency": "inconclusive: 2.82 µM [inhibitor, full curve]"}
{"compound": "Cc1cccc(-n2c(=O)c3c(c4cc(C)ccc4n3C)n(CC(=O)Nc3ccc(C)c(C)c3)c2=O)c1", "Potency": "inconclusive: 35.5 µM [inhibitor, partial curve, poor fit]"}
{"compound": "COC(=O)c1sccc1S(=O)(=O)N(CC(=O)NCc1ccc(F)cc1)c1ccccc1", "Potency": "inconclusive: 31.6 µM [inhibitor, single point]"}
{"compound": "O=C(NCCc1noc(-c2ccncc2)n1)c1ccccc1", "Potency": "inactive"}
{"compound": "Cc1ccc2c(n1)OC(COc1ccccc1)CN(c1ccccc1)C2=O", "note": "(stereo unspecified)", "Potency": "inactive"}
{"compound": "O=[S+]([O-])(c1cccc(C(F)(F)F)c1)N1CCN(Cc2ccccc2-c2cccnc2)CC1", "Potency": "inconclusive: 39.8 µM [inhibitor, single point]"}
{"compound": "CC(=O)c1cccc(NC(=O)Cn2c(=O)n(-c3cccc(C)c3)c(=O)c3c2cc(C)n3C)c1", "Potency": "inconclusive: 0.708 µM [inhibitor, full curve, poor fit]"}
{"compound": "O=C(C1CCCC1)N1CCC(CCOc2ccc(F)cc2)C1", "note": "(stereo unspecified)", "Potency": "inactive"}
{"compound": "COc1ccc([C@H]2C[C@@H](O)[C@@H](O)[C@@H]2NC(=O)c2ccc(OC)c(OC)c2)cc1", "Potency": "inconclusive: 2.82 µM [inhibitor, full curve]"}
{"compound": "Cc1ccccc1Oc1c(CCC(=O)NCC2CC2)c(C)nn1-c1ccc(F)cc1", "Potency": "inconclusive: 28.2 µM [inhibitor, single point]"}
{"compound": "Cc1cc(C)cc(C(=O)NCc2nnc3c(-c4nc(C(C)C)no4)cccn23)c1", "Potency": "inactive"}
{"compound": "COCCN[C@H]1[C@@H]2OC[C@@H](O2)[C@@H](NC(=O)Nc2cccc(C#N)c2)[C@@H]1O", "Potency": "inconclusive: 12.6 µM [inhibitor, single point]"}
{"compound": "CC(C)CCN1CCC(N2CCN(C(=O)CCc3ccccc3)CC2)C1=O", "note": "(stereo unspecified)", "Potency": "inconclusive: 7.94 µM [inhibitor, partial curve, poor fit]"}
{"compound": "COc1ccc2[nH]c(C(=O)N3CCN4CCS(=O)(=O)N(C5CC5)C(=O)C4C3)cc2c1", "note": "(stereo unspecified)", "Potency": "inactive"}
{"compound": "CN(Cc1ccccc1)C(=O)c1ccc2c(c1)NC(C)(COc1ccccc1)CO2", "note": "(stereo unspecified)", "Potency": "inconclusive: 56.2 µM [inhibitor, single point]"}
{"compound": "O=C(c1ccsc1)N1CCCCCC1c1nc(-c2cccnc2)no1", "note": "(stereo unspecified)", "Potency": "inconclusive: 10 µM [inhibitor, partial curve, poor fit]"}
{"compound": "CC(C)NC(=O)C[C@@H]1C[C@H]2O[C@H](CNCc3ccncc3F)[C@@H](O)[C@H]2O1", "Potency": "inactive"}
{"compound": "Cc1cc(Nc2cccc(C(F)(F)F)c2)nc2ccc(NC(=O)c3cccnc3)cc12", "Potency": "inconclusive: 39.8 µM [inhibitor, single point]"}
{"compound": "CC(=O)NC[C@H]1OC[C@@H](NCC(C)(C)C)[C@@H]1O", "Potency": "inconclusive: 20 µM [inhibitor, partial curve, poor fit]"}
{"compound": "Cc1ccc2nc(C3CCCN(Cc4cccc(-c5cccs5)c4)C3)[nH]c(=O)c2c1", "note": "(stereo unspecified)", "Potency": "inconclusive: 7.08 µM [inhibitor, single point]"}
{"compound": "CC(NC(=O)c1cc(-c2ccc(Cl)cc2)on1)c1ccccc1", "note": "(stereo unspecified)", "Potency": "inconclusive: 39.8 µM [inhibitor, single point]"}
{"compound": "COc1ccc(Cl)cc1NS(=O)(=O)c1c(C)[nH]c(=O)[nH]c1=O", "Potency": "inconclusive: 10 µM [inhibitor, partial curve, poor fit]"}
{"compound": "CC(=O)N(C1CCOCC1)C1CCN(S(=O)(=O)c2cc(F)ccc2C)CC1", "Potency": "inconclusive: 7.08 µM [inhibitor, single point]"}
{"compound": "Cc1cc(Cl)ccc1S(=O)(=O)N(C)CC1CCOC1", "note": "(stereo unspecified)", "Potency": "inconclusive: 10 µM [inhibitor, partial curve, poor fit]"}
{"compound": "CCN1c2cc(C(=O)Nc3cccc(Br)c3)ccc2C(=O)N2CCCCC21", "note": "(stereo unspecified)", "Potency": "inactive"}
{"compound": "O=C(Nc1ccc(F)c(Cl)c1)C1=NO[C@@H]2CN(Cc3cccnc3)C[C@H]12", "Potency": "inactive"}
{"compound": "Oc1cc2c(c(Cl)c1O)CCNCC2c1ccccc1", "note": "(stereo unspecified)", "Potency": "inconclusive: 6.31 µM [inhibitor, partial curve, poor fit]"}
{"compound": "COc1ccc(C(=O)N2CCN(c3nnc4ccccn34)CC2)cc1OC", "Potency": "inactive"}
{"compound": "Cn1cc(-c2cnc3n[nH]c(-c4ccccc4)c3n2)cn1", "Potency": "inconclusive: 2.82 µM [inhibitor, full curve, poor fit]"}
{"compound": "CC(=O)N1CCCC(C(=O)N2CCC(N3Cc4cccn4C3=O)CC2)C1", "note": "(stereo unspecified)", "Potency": "inactive"}
{"compound": "Cc1ccccc1C(=O)N1CCC(N2CCCCCC2=O)CC1", "Potency": "inactive"}
{"compound": "COc1cccc(C(=O)NCCn2ccn3nc(-c4ccc(F)cc4)cc3c2=O)c1OC", "Potency": "inactive"}
{"compound": "CC(C)C(=O)c1cc2c(cc1NC(=O)c1ccccc1F)OCCO2", "Potency": "inactive"}
{"compound": "COc1ccc(CCC(=O)N2CCCCCCNC(=O)CC2)cc1", "Potency": "inconclusive: 5.01 µM [inhibitor, partial curve, poor fit]"}
{"compound": "CC(C)(C)C(=O)N1CCCC2(CN[S+](=O)([O-])c3cccnc3O2)C1", "note": "(stereo unspecified)", "Potency": "inactive"}
{"compound": "COc1ccc2c(c1)Cc1sc(NC(=O)c3ccc(Cl)cc3)nc1-2", "Potency": "inconclusive: 6.31 µM [inhibitor, single point]"}
{"compound": "O=C(NC1CCCc2c1[nH]c1ccc(F)cc21)c1ccc2c(c1)OCO2", "note": "(stereo unspecified)", "Potency": "inconclusive: 5.62 µM [inhibitor, single point]"}
{"compound": "CSc1ccc(-c2ccc3c(c2)C(=O)N2CC[C@H](NC(=O)c4cccs4)C[C@H]2C(=O)N3)cc1", "Potency": "inactive"}
{"compound": "Cc1ccccc1-c1noc(-c2ccc(N3CCCC3)c([N+](=O)[O-])c2)n1", "Potency": "inconclusive: 7.08 µM [inhibitor, full curve, poor fit]"}
{"compound": "O=c1c2c(n(Cc3cccnc3)n1-c1ccccc1)CN(CC1CCOC1)CC2", "note": "(stereo unspecified)", "Potency": "inactive"}
{"compound": "COc1ccc(CNC(=O)N2CC(Oc3cccc(-c4nc(C)no4)c3)C2)cc1", "Potency": "inconclusive: 39.8 µM [inhibitor, single point]"}
